Measurements as given in publication PMC12040169 (PLOS Biology, 2025).
The other results are listed elsewhere or left out.

Tested on: T1, C. trachomatis L2/434/Bu expressing GFP (CTL2-GFP)
T1 construct: L2/434/Bu GFP intracellular growth in HeLa cells
Set-up: species or system HeLa; C. trachomatis total inclusion area by high-content imaging, normalised to DMSO
Conditions: total inclusion area; 28.5 h, 10 µM; inhibitor
Method in brief: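 Host cell viability was gauged from Hoechst-stained nuclei counts, while chlamydial growth was taken from total inclusion area and inclusion number per well. Cells were fixed and imaged by high-content microscopy once bulk GFP and resorufin fluorescence had been measured.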

| SMILES | % of control remaining |
| --- | --- |
| COc1ccc([C@@]23CCCN(C(=O)Nc4ccc(C)c(F)c4)C[C@@H]2N(C)CC3)cc1OC [CBK056680T] | 66.8881 |
| COC(=O)C(NC(=O)c1cnc(-c2ccc(Cl)cc2)c(-c2ccc(O)cc2)c1)c1ccccc1 (centres unmarked) [CBK036723] | 100.629 |
| COC(=O)c1ccc(C)c(NS(=O)(=O)c2cc(Cl)ccc2Cl)c1 [CBK077971] | 96.9502 |
| Cc1cccc(OCCn2c(SCCC(=O)O)nc3ccccc32)c1 [CBK264682] | 100.357 |
| C#CCNC(=O)CC[C@H]1CNC(=O)[C@@H]2[C@@H](CCN2Cc2ccc(C)cc2)N1C [CBK289036] | 118.866 |
| Cc1cc(CN(C)Cc2c(C)nn(-c3ccc(F)cc3)c2C)n[nH]1 [CBK281990] | 103.402 |
| Nc1cccc(-c2nccnc2NCCc2ccccn2)c1 [CBK037512] | 85.3539 |
| CC(C)N1CC[C@@H]2[C@H]1C(=O)NC[C@H](CCC(=O)Nc1ccccc1)N2C [CBK289030] | 117.584 |
| C[C@H](Nc1cncc(-c2cccc(C(=O)NCCO)c2)n1)c1ccccc1 [CBK066007] | 87.9156 |
| CCn1c(C)nc2cc(NC(=O)c3cnn(C)c3)ccc21 [CBK281837] | 117.456 |
| CC(C)NS(=O)(=O)c1ccc(NS(=O)(=O)c2ccc(F)c(C(=O)O)c2)cc1 [CBK297533] | 83.4375 |
| COc1cc(OC)nc(C(NC(=O)C2CCN(Cc3ccccc3F)CC2)c2ccc(Cl)cc2)n1 (centres unmarked) [CBK148152] | 77.6082 |
| Cc1ccccc1C(=O)NC(=S)Nc1sc2c(c1C(N)=O)CCC2 [CBK262107] | 91.7366 |
| O=C(O)c1ccc(CSc2nnnn2-c2ccccc2)cc1 [CBK286726] | 78.5677 |
| COc1ccccc1CCCN1CCC(C(=O)NC(=O)Nc2ccccc2)CC1 [CBK034865] | 94.5629 |
| CCN(CC)CCn1c(=N)n(Cc2ccc(C(C)(C)C)cc2)c2ccccc21 [CBK268803B] | 50.1283 |
| Fc1ccc(CSc2nnnn2-c2ccc3c(c2)OCO3)cc1 [CBK293927] | 76.321 |
| Clc1ccc(C2NCCS2)c(Cl)c1 (centres unmarked) [CBK027425] | 114.435 |
| CC(=O)Nc1ccc(S(=O)(=O)/N=C(/Nc2nc(C)cc(C)n2)Nc2ccccc2C)cc1 [CBK264101] | 108.319 |
| O=C(Cn1nc2n(c1=O)CCCCC2)NCC(O)c1ccc(F)cc1 (centres unmarked) [CBK305187] | 75.2296 |
| COc1ccc(CCNC(=O)N(C)C2CCN(C)C2)cc1 (centres unmarked) [CBK156019] | 94.4131 |
| O=c1[nH]cc(-c2ccc(F)cc2)cc1CNCc1cccc(F)c1 [CBK284697] | 79.5043 |
| O=C(Cn1cccc(C(=O)NC2CCCC2)c1=O)NCC1(c2ccccc2)CCCC1 [CBK285975] | 128.077 |
| CCOC(=O)C1(N)CCCC1 [CBK073836C] | 41.9051 |
| O=C(NCCN1CCOCC1)c1nnc(C(=O)Nc2cccc(Cl)c2)s1 [CBK294405] | 91.6871 |
| Nc1ncc(-c2cc(C(F)(F)F)cc(C(F)(F)F)c2)nc1NC1CCC(O)CC1 (centres unmarked) [CBK063808] | 97.4571 |
| Cc1cnc2[nH]c(C(F)(F)F)c(CN3CCCC(CO)C3)c2c1 (centres unmarked) [CBK285167] | 94.7579 |

| SMILES | % of control remaining |
| --- | --- |
| CN1CC=C(/C=C/C2=Cc3ccccc3OC2)CC1 [CBK283857] | 86.9429 |
| COCc1nnc(Sc2ccc(C(F)(F)F)cn2)s1 [CBK115219] | 86.8644 |
| CCC(CO)Nc1nccnc1-c1ccsc1 (centres unmarked) [CBK036606] | 105.247 |
| COC(=O)c1ccc(NS(=O)(=O)Cc2ccccc2)cc1 [CBK028699] | 103.722 |
| COc1ccc(C(=O)Nc2ccccc2C(=O)N2CCOCC2)cc1Br [CBK269923] | 87.3419 |
| CC(CN(C)C)C(=O)c1cn(C)c2ccccc12 (centres unmarked) [CBK015540] | 54.0475 |
| OCCN(Cc1cccnc1)CC1(c2ccc(Cl)cc2)CC1 [CBK282943] | 84.6906 |
| Cc1cc(N)cc(C)c1O [CBK012062C] | 14.4517 |
| O=C(c1cc(C2CC2)on1)N1CCc2ncc(Cl)cc2C1 [CBK284855] | 83.1111 |
| O=C(NCc1ccco1)NC(=O)c1ccc(Cl)cc1 [CBK269461] | 118.536 |
| COc1cc(C(=O)N2CCC3(CC2)CC(=O)c2cc(CN4CCN(C)CC4)ccc2O3)cc(OC)c1C [CBK169185] | 82.043 |
| O=S(=O)(Nc1ccc(N2CCNCC2)nc1)c1ccc(F)cc1F [CBK000022C] | 45.3984 |
| O=C1NC(=O)C(CCCCN2CCCC3(CCN(C(=O)Cc4c[nH]c5ccccc45)C3)C2)N1 (centres unmarked) [CBK132059] | 105.752 |
| COc1ccc(C)cc1NC(=O)Nc1nc(C)cs1 [CBK006565] | 98.4461 |
| CC(=O)Nc1ccc(S(=O)(=O)c2cc(O)ccc2O)cc1 [CBK261372] | 98.3427 |
| CCNC(=O)c1cc2c(=O)n3ccccc3nc2n1C [CBK287556] | 103.648 |
| Cn1cccc1C(=O)Nc1cc2ccccc2c(N2CCNCC2)n1 [CBK036347T] | 109.638 |
| Cc1cnc(C(=O)N2CCC3(CC2)CC(=O)c2cc(Cl)cc(Cl)c2O3)cn1 [CBK156502] | 91.2661 |
| Clc1ccc(CN2CCC(Oc3cncc(OCC4COc5ccccc5O4)n3)C2)cc1 (centres unmarked) [CBK084364] | 89.6135 |
| Fc1ccc(C(c2nnnn2C2CCCCC2)N2CCCCC2)cc1 (centres unmarked) [CBK141670] | 3.998 |
| CC(C)c1ccc(NS(=O)(=O)c2csc3ccnc(N4CCNCC4)c23)cc1 [CBK042343C] | 54.5985 |
| CCc1ccc(C(O)CNC2CCN(CC(F)F)CC2)cc1 (centres unmarked) [CBK304144] | 24.5904 |
| Cc1ccc(NC(=O)c2cnc(SCc3ccc(F)cc3)n(C)c2=O)cc1C [CBK287674] | 72.7394 |
| CC(C)CNc1ncc(-c2ccc(N3CCOCC3)cc2)n2ccnc12 [CBK091273] | 90.8756 |
| COc1cccc(-c2ccc(C(=O)Nc3ccc4c(c3)OCO4)c(N3CCOCC3)n2)c1 [CBK076509] | 107.176 |
| CCn1ncc(S(=O)(=O)Nc2ccc3c(c2)cc(C)n3C)c1C [CBK282761] | 73.7913 |
| O=C1NC2(CCCCC2)C(=O)N1CCS(=O)(=O)Oc1ccc(Br)cc1 [CBK261303] | 97.9596 |

| SMILES | % of control remaining |
| --- | --- |
| c1ccc(CCNc2nc(-c3ccc(N4CCOCC4)cc3)cn3ccnc23)nc1 [CBK037271] | 131.632 |
| O=C(NC1CC1)[C@H]1O[C@H](CCN2CCN(c3ccccc3)CC2)CC[C@@H]1O [CBK288717] | 100.912 |
| O=C(O)c1cc(/C=C/c2ccc(Br)cc2)nc2ccccc12 [CBK299805] | 84.6925 |
| COc1ccc(C(NC(=O)C2CC=CCC2C(=O)O)c2ccccc2)cc1 (centres unmarked) [CBK264264] | 99.0498 |
| CC1=C[C@@H](CNC(=O)c2cccnc2)[C@H](C(C)C)C[C@H]1CC(=O)N1CCOCC1 [CBK289053] | 110.868 |
| O=C(CCN1CCn2nc(C(O)C3CC3)cc2C1)NCc1cccs1 (centres unmarked) [CBK306603] | 27.3041 |
| O=S(=O)(CCN1CCC(Cc2ccccc2)CC1)c1ccccc1 [CBK126386] | 103.329 |
| O=C(O)CCSCC(=O)c1ccc(NS(=O)(=O)c2ccccc2)cc1 [CBK300504] | 90.0975 |
| c1ccc2c(c1)n[n+]1c3ccccc3[n-]n21 [CBK260974] | 106.145 |
| CN(C)CCN(Cc1nc2ccccc2[nH]1)Cc1cccs1 [CBK283020] | 118.913 |
| Cc1c(S(=O)(=O)Nc2nnn[nH]2)sc2ccc(Cl)cc12 [CBK062392] | 98.5727 |
| CN1CCN(c2ccc(C(=O)N3CCC(F)CC3)cc2)CC1 [CBK200265] | 100.209 |
| CCCC[C@H]1CC[C@H](C(=O)Oc2ccc(OC(C)C(=O)O)cc2)CC1 (some centres unmarked) [CBK160854] | 100.96 |
| CC(OC(=O)c1ccc2nccnc2c1)c1cccc([N+](=O)[O-])c1 (centres unmarked) [CBK297901] | 78.3678 |
| COc1ccc(SC(C)C(=O)N2CCN(c3ccc([N+](=O)[O-])nc3)CC2)cc1 (centres unmarked) [CBK298282] | 113.659 |
| O=C(O)c1cccc2c1C(=O)N(Cc1ccncc1)C2 [CBK291146] | 117.77 |
| Cc1cccc(CN2CCC(NC(=O)Cn3ccccc3=O)CC2)c1 [CBK305667] | 36.1599 |
| CC(=O)Nc1ccc(CN2Cc3nc[nH]c3C[C@H]2c2nc(-c3ccc(F)cc3)no2)cc1 [CBK288956] | 98.5565 |
| CN(C)CCN(C)c1cc(-c2cccc(C(=O)O)c2)nc2ccnn12 [CBK037206] | 86.6374 |
| CC(NC(=O)C1CCN(Cc2ccc(Oc3ccccc3)cc2)CC1)c1ccccc1 (centres unmarked) [CBK148618] | 74.112 |
| CC(=O)c1ccc(-c2nc(NC(=O)CC3OC(=O)c4ccccc43)cnc2-c2cccc(C)c2)s1 (centres unmarked) [CBK037152] | 121.017 |
| CC(C)(CNC(=O)Cn1cccc(C(=O)Nc2ccc(F)cc2)c1=O)c1ccccc1F [CBK286067] | 99.0443 |
| CC(C)(CO)CNc1cncc(-c2ccc(O)cc2)n1 [CBK065386] | 117.451 |
| FC(F)(F)Oc1ccc(-n2cc(-c3ccsc3)nn2)cc1 [CBK113096] | 107.987 |
| Cn1cc(CCCCNC(=O)Cc2c[nH]c3ccc(Cl)cc23)cn1 [CBK306364] | 71.4094 |
| O=C1[C@@H]2CCCN2C(=O)c2ccccc2N1CCN1CCCC1 [CBK282857] | 89.5825 |
